This passage reports binding results from paper PMC2970546.

Amino acid sequences for entries named in this document (tags omitted). A change or cut given only in a name is not applied to a line headed by its entry. Chains listed by the source or under a name are the forms on record and can include a tag or linker.
human septin 3 (Q9UH03, form named): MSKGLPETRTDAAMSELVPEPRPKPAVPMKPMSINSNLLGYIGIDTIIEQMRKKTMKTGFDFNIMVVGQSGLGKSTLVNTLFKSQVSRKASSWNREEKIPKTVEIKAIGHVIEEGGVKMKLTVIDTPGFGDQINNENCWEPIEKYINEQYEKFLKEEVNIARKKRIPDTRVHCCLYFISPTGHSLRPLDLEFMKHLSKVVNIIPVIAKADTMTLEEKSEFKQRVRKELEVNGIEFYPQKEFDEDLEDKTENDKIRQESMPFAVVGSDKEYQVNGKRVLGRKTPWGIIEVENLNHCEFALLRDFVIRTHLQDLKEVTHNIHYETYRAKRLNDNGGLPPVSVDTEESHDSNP

What all share (experiment): two-hybrid; LexA-septin bait (modified pBTM116) in yeast L40 screened against human fetal brain and human leukocyte cDNA libraries (pACT2); minimal medium without Trp, Leu, His, with 5 mM 3-AT; every clone confirmed one-to-one with its bait by beta-galactosidase filter assay, empty bait vector as control
In experiment [1] the target is T1, human septin 6 (human), Q14141.
T1 chain: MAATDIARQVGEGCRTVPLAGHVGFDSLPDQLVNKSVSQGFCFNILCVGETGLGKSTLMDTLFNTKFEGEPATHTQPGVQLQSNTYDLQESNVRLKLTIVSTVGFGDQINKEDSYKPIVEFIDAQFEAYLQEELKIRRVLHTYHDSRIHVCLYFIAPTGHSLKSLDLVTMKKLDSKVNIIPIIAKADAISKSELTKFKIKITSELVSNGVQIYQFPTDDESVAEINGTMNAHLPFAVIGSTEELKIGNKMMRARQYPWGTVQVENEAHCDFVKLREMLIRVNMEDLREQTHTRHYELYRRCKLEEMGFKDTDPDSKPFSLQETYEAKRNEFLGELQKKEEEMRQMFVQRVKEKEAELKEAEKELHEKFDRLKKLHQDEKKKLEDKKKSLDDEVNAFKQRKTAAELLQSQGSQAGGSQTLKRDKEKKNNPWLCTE
The following applies: remark: other sources report otherwise.

The target of experiment [2] is T2, human septin 1 (human) (UniProt Q8WYJ6).
T2 sequence: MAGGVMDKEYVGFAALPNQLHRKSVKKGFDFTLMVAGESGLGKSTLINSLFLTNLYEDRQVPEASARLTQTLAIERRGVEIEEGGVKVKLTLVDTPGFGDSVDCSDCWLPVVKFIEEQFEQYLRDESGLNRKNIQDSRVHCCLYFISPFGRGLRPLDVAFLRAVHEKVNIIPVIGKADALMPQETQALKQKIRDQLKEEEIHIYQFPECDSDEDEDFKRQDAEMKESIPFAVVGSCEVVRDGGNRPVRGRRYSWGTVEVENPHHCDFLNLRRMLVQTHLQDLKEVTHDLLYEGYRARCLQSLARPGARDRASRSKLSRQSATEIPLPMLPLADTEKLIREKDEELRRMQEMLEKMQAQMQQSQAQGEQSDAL

Experiment [3] addresses T3, human septin 10 (human) (UniProt Q9P0V9).
T3 sequence: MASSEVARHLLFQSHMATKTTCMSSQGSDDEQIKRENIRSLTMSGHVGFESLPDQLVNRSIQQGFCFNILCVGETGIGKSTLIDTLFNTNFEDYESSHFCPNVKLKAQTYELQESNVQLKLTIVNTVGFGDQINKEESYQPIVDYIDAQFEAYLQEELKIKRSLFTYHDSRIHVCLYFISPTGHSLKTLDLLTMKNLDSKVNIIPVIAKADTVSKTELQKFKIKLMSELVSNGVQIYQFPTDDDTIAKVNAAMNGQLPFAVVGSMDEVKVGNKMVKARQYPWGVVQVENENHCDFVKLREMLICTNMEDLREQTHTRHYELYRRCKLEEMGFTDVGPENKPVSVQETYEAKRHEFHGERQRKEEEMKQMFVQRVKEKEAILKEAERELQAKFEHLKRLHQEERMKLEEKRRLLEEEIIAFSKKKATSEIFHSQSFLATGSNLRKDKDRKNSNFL

For experiment [4], the target named is human septin 3 (human) (UniProt Q9UH03).
Experiment [5] concerns the target T4, human septin 7 (human) (UniProt Q16181).
T4 sequence: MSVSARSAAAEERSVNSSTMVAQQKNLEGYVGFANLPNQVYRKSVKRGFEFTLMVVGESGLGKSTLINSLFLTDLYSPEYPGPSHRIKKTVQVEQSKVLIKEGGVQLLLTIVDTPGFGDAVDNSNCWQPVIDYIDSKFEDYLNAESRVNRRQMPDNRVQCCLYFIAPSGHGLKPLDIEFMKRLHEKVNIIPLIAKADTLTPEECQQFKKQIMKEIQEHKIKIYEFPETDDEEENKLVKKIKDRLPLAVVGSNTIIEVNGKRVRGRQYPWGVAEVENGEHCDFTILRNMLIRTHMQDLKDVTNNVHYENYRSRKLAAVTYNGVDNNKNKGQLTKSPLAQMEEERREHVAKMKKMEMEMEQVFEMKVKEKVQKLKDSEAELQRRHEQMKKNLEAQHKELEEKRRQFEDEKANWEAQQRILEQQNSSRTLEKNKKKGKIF

In experiment [6] the target is T5, human septin 8 (human) (UniProt Q92599).
T5 sequence: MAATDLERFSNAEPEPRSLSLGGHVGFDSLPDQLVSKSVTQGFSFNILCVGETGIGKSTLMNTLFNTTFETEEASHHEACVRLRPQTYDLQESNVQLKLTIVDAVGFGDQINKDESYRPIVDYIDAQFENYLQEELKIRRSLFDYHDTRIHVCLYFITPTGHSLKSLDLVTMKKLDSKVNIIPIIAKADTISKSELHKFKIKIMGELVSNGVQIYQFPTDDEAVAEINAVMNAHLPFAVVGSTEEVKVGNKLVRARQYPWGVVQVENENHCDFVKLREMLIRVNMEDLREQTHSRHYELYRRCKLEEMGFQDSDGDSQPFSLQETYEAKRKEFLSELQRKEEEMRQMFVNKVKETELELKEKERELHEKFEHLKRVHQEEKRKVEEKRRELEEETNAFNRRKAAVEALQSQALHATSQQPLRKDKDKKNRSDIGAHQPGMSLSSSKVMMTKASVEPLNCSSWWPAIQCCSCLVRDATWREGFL

Results are given in words; binding and its absence hold for the method and conditions named. Some binding calls cover weakened binding; strength is not graded here.

B1: human septin 10, Q9P0V9 1-454 (protein)
chain: MASSEVARHLLFQSHMATKTTCMSSQGSDDEQIKRENIRSLTMSGHVGFESLPDQLVNRSIQQGFCFNILCVGETGIGKSTLIDTLFNTNFEDYESSHFCPNVKLKAQTYELQESNVQLKLTIVNTVGFGDQINKEESYQPIVDYIDAQFEAYLQEELKIKRSLFTYHDSRIHVCLYFISPTGHSLKTLDLLTMKNLDSKVNIIPVIAKADTVSKTELQKFKIKLMSELVSNGVQIYQFPTDDDTIAKVNAAMNGQLPFAVVGSMDEVKVGNKMVKARQYPWGVVQVENENHCDFVKLREMLICTNMEDLREQTHTRHYELYRRCKLEEMGFTDVGPENKPVSVQETYEAKRHEFHGERQRKEEEMKQMFVQRVKEKEAILKEAERELQAKFEHLKRLHQEERMKLEEKRRLLEEEIIAFSKKKATSEIFHSQSFLATGSNLRKDKDRKNSNFL
With B1, the binding result in experiment [1] is listed as “no binding”.

B2: human septin 8, Q92599-1 1-483 (protein)
chain: MAATDLERFSNAEPEPRSLSLGGHVGFDSLPDQLVSKSVTQGFSFNILCVGETGIGKSTLMNTLFNTTFETEEASHHEACVRLRPQTYDLQESNVQLKLTIVDAVGFGDQINKDESYRPIVDYIDAQFENYLQEELKIRRSLFDYHDTRIHVCLYFITPTGHSLKSLDLVTMKKLDSKVNIIPIIAKADTISKSELHKFKIKIMGELVSNGVQIYQFPTDDEAVAEINAVMNAHLPFAVVGSTEEVKVGNKLVRARQYPWGVVQVENENHCDFVKLREMLIRVNMEDLREQTHSRHYELYRRCKLEEMGFQDSDGDSQPFSLQETYEAKRKEFLSELQRKEEEMRQMFVNKVKETELELKEKERELHEKFEHLKRVHQEEKRKVEEKRRELEEETNAFNRRKAAVEALQSQALHATSQQPLRKDKDKKNRSDIGAHQPGMSLSSSKVMMTKASVEPLNCSSWWPAIQCCSCLVRDATWREGFL
Consider B2, for which the binding result in experiment [1] is reported as “no binding”.

B3: human septin 9, transcript variant 3, protein isoform c, full length (protein, UniProt Q9UHD8-2 1-568)
chain: MERDRISALKRSFEVEEVETPNSTPPRRVQTPLLRATVASSTQKFQDLGVKNSEPSARHVDSLSQRSPKASLRRVELSGPKAAEPVSRRTELSIDISSKQVENAGAIGPSRFGLKRAEVLGHKTPEPAPRRTEITIVKPQESAHRRMEPPASKVPEVPTAPATDAAPKRVEIQMPKPAEAPTAPSPAQTLENSEPAPVSQLQSRLEPKPQPPVAEATPRSQEATEAAPSCVGDMADTPRDAGLKQAPASRNEKAPVDFGYVGIDSILEQMRRKAMKQGFEFNIMVVGQSGLGKSTLINTLFKSKISRKSVQPTSEERIPKTIEIKSITHDIEEKGVRMKLTVIDTPGFGDHINNENCWQPIMKFINDQYEKYLQEEVNINRKKRIPDTRVHCCLYFIPATGHSLRPLDIEFMKRLSKVVNIVPVIAKADTLTLEERVHFKQRITADLLSNGIDVYPQKEFDEDSEDRLVNEKFREMIPFAVVGSDHEYQVNGKRILGRKTKWGTIEVENTTHCEFAYLRDLLIRTHMQNIKDITSSIHFEAYRVKRLNEGSSAMANGMEEKEPEAPEM
In the case of B3, the binding result in experiment [2] was “binds”; in experiment [3], “no binding”; in experiment [4] it was “no binding”; in experiment [5], “binds”; in experiment [6], “binds”.

B4: SEPT11(7-429) (domain or fragment, UniProt Q9NVA2 7-429)
chain: RPSNEELRNLSLSGHVGFDSLPDQLVNKSTSQGFCFNILCVGETGIGKSTLMDTLFNTKFESDPATHNEPGVRLKARSYELQESNVRLKLTIVDTVGFGDQINKDDSYKPIVEYIDAQFEAYLQEELKIKRSLFNYHDTRIHACLYFIAPTGHSLKSLDLVTMKKLDSKVNIIPIIAKADTIAKNELHKFKSKIMSELVSNGVQIYQFPTDEETVAEINATMSVHLPFAVVGSTEEVKIGNKMAKARQYPWGVVQVENENHCDFVKLREMLIRVNMEDLREQTHTRHYELYRRCKLEEMGFKDTDPDSKPFSLQETYEAKRNEFLGELQKKEEEMRQMFVMRVKEKEAELKEAEKELHEKFDLLKRTHQEEKKKVEDKKKELEEEVNNFQKKKAAAQLLQSQAQQSGAQQTKKDKDKKNASFT
Regarding B4, the binding result in experiment [4] is “binds”.

B5: SEPT6(4-427) (domain or fragment, UniProt Q14141 4-427)
chain: TDIARQVGEGCRTVPLAGHVGFDSLPDQLVNKSVSQGFCFNILCVGETGLGKSTLMDTLFNTKFEGEPATHTQPGVQLQSNTYDLQESNVRLKLTIVSTVGFGDQINKEDSYKPIVEFIDAQFEAYLQEELKIRRVLHTYHDSRIHVCLYFIAPTGHSLKSLDLVTMKKLDSKVNIIPIIAKADAISKSELTKFKIKITSELVSNGVQIYQFPTDDESVAEINGTMNAHLPFAVIGSTEELKIGNKMMRARQYPWGTVQVENEAHCDFVKLREMLIRVNMEDLREQTHTRHYELYRRCKLEEMGFKDTDPDSKPFSLQETYEAKRNEFLGELQKKEEEMRQMFVQRVKEKEAELKEAEKELHEKFDRLKKLHQDEKKKLEDKKKSLDDEVNAFKQRKTAAELLQSQGSQAGGSQTLKRDKEKKN
For the molecule B5, in experiment [4], the binding result is reported as “binds”.
